In a compilation of properties of binary mixtures (doi:10.2298/jsc160317058s):
Some of these densities may be calculated back from excess volumes.

Assay: xn = mol fraction of the nth substance listed
Details: 100 kPa

CN(C)c1ccccc1 + CCCC[n+]1ccn(C)c1.O=S(=O)([O-])C(F)(F)F
mass density [kg/m3]
Details | 288.15 K | 293.15 K | 298.15 K | 303.15 K | 308.15 K | 313.15 K | 318.15 K | 323.15 K | 328.15 K | 333.15 K
x1 = 0.02 | – | – | – | 1287.9 | – | – | – | – | – | –
x1 = 0.0501 | – | – | – | 1281.1 | – | – | – | – | – | –
x1 = 0.1 | 1278.8 | 1274.7 | 1270.6 | 1266.6 | 1262.5 | 1258.5 | – | 1250.4 | – | –
x1 = 0.1402 | – | – | – | 1259.8 | – | – | – | – | – | –
x1 = 0.18 | – | – | – | 1253.5 | – | – | – | – | – | –
x1 = 0.2 | 1259.8 | 1255.8 | 1251.8 | 1247.7 | – | – | 1235.7 | 1231.8 | 1227.8 | 1223.8
x1 = 0.2998 | – | 1236.8 | 1232.7 | 1228.7 | 1224.8 | 1220.8 | 1216.9 | 1212.9 | 1209 | 1205.1
x1 = 0.397 | – | 1214.3 | – | 1206.3 | 1202.3 | 1198.3 | 1194.4 | 1190.5 | 1186.6 | 1182.7
x1 = 0.5045 | 1188 | 1183.9 | 1179.9 | 1175.9 | 1171.9 | 1167.9 | 1163.9 | 1160 | 1156 | –
x1 = 0.5996 | 1156.5 | 1152.5 | 1148.4 | 1144.4 | 1140.3 | 1136.3 | 1132.3 | 1128.3 | 1124.4 | 1120.4
x1 = 0.6997 | – | 1114.4 | 1110.4 | 1106.3 | 1102.2 | – | – | 1090.1 | 1086.1 | 1082.1
x1 = 0.7994 | 1074.4 | 1070.3 | 1066.2 | 1062.1 | 1058 | 1053.9 | 1049.9 | 1045.8 | 1041.8 | 1037.7
x1 = 0.8945 | 1024.8 | 1020.7 | – | 1012.4 | 1008.3 | 1004.2 | – | 996 | – | –
x1 = 1 | – | – | 952.3 | 948.2 | 944.1 | 940 | 935.9 | – | 927.7 | 923.5

Nc1ccccc1 + CCCC[n+]1ccn(C)c1.O=S(=O)([O-])C(F)(F)F
x1 = 1
Details | mass density [kg/m3]
288.15 K | 1026.1
293.15 K | 1021.7
298.15 K | 1017.4
303.15 K | 1013
308.15 K | 1008.7
313.15 K | 1004.4
318.15 K | 1000
328.15 K | 991.4
333.15 K | 987

CCCC[n+]1ccn(C)c1.O=S(=O)([O-])C(F)(F)F + CN(C)c1ccccc1
x2 = 0
Details | mass density [kg/m3]
288.15 K | 1307
293.15 K | 1303.1
298.15 K | 1299.1
303.15 K | 1295.1
313.15 K | 1287.2
318.15 K | 1283.3
323.15 K | 1279.4
328.15 K | 1275.5
333.15 K | 1271.7

CCCC[n+]1ccn(C)c1.O=S(=O)([O-])C(F)(F)F + Nc1ccccc1
mass density [kg/m3]
Details | 288.15 K | 293.15 K | 298.15 K | 303.15 K | 308.15 K | 313.15 K | 318.15 K | 323.15 K | 328.15 K | 333.15 K
x2 = 0 | – | 1303.1 | 1299.1 | 1295.1 | 1291.1 | 1287.2 | 1283.3 | 1279.4 | 1275.5 | 1271.7
x2 = 0.1 | 1295.2 | 1291.2 | 1287.2 | 1283.2 | 1279.3 | 1275.4 | 1271.4 | 1267.5 | 1263.7 | 1259.8
x2 = 0.1995 | 1283.2 | 1279.2 | – | 1271.3 | 1267.4 | 1263.5 | 1259.6 | 1255.7 | 1251.8 | –
x2 = 0.3002 | – | – | 1261.3 | – | 1253.4 | 1249.5 | 1245.6 | – | 1237.9 | 1234
x2 = 0.3996 | – | – | – | – | – | – | – | 1225.3 | 1221.4 | 1217.6
x2 = 0.8999 | 1092.4 | 1088.3 | 1084.2 | 1080.1 | 1076 | 1072 | 1067.9 | – | – | 1055.6
